Test results taken from PubChem BioAssay AID270 (DTP/NCI, 2004).
Records with an inconclusive call do not appear. Certain results were filed several times, with different values. Only these are listed. An entry can have further records. Values that stand side by side are repeated measurements (runs, samples, wells, individuals or studies). Additions like (4×) say how often a value occurs here.

Tested on: BDF1 mice, s.c. Lewis lung carcinoma, T/C %
Test: NCI In Vivo Anticancer Drug Screen. Data for tumor model Lewis Lung Carcinoma (subcutaneous) in B6D2F1 (BDF1) mice
Experimental: The antitumor activity of compounds was measured in mice bearing transplantable tumors. Survival or tumor size were measured and the results are expressed as the measurement made in the treated group (T) divided by the measurement made in the vehicle treated control group (C). The tumor model used in this assay is Lewis Lung Carcinoma (subcutaneous) in B6D2F1 (BDF1) mice

[1] = endpoint: mean tumor weight, dose: 30.0 mg/kg/injection, schedule: Q01DX011 (ip), vehicle: other, higher = larger tumour
[2] = endpoint: mean tumor weight, dose: 50.0 mg/kg/injection, schedule: Q01DX011 (ip), vehicle: carboxymethylcellulose (CMC), higher = larger tumour
[3] = endpoint: mean tumor weight, dose: 250.0 mg/kg/injection, schedule: Q01DX011 (sc), vehicle: steriod suspending solution, higher = larger tumour
[4] = endpoint: mean tumor weight, dose: 25.0 mg/kg/injection, schedule: Q01DX011 (ip), vehicle: carboxymethylcellulose (CMC), higher = larger tumour

For `O=C1CN=C(c2ccc[nH]2)c2cc(Cl)ccc2N1`, the T/C (endpoint: mean tumor weight, dose: 80.0 mg/kg/injection, schedule: Q01DX011 (ip), vehicle: other, higher = larger tumour) was 8 % of control and 109 % of control.

With `CCCCn1cnc2c(SC)nc(N)nc21` the T/C (endpoint: mean tumor weight, dose: 240.0 mg/kg/injection, schedule: Q01DX011 (ip), vehicle: other, higher = larger tumour) was 43 % of control and 77 % of control.

`CNS(=O)(=O)c1ncnc2nc[nH]c12` was tested, and the T/C (endpoint: mean tumor weight, dose: 75.0 mg/kg/injection, schedule: Q01DX011 (ip), vehicle: carboxymethylcellulose (CMC), higher = larger tumour) was 25 % of control and 62 % of control.

With `Nc1ccc(O)cc1` the T/C (endpoint: mean tumor weight, dose: 75.0 mg/kg/injection, schedule: Q01DX011 (ip), vehicle: saline, higher = larger tumour) was 63 % of control and 115 % of control and the T/C (endpoint: mean tumor weight, dose: 150.0 mg/kg/injection, schedule: Q01DX011 (ip), vehicle: saline, higher = larger tumour) was 36 % of control and 68 % of control.

`Cc1cccc(NC(=O)N(CCCl)N=O)c1` was tested, and the T/C (endpoint: median survival time, dose: 1.5 mg/kg/injection, schedule: Q01DX009 (ip), vehicle: saline with Tween-80, higher = longer survival) was 112 % of control and 161 % of control.

With `O=c1[nH]c(=O)n(C2CC(O)C(CO)O2)cc1F` (stereo not drawn) the T/C (endpoint: median survival time, dose: 100.0 mg/kg/injection, schedule: Q01DX009 (ip), vehicle: saline, higher = longer survival) was 95 % of control and 181 % of control.

`CCCCCC/C=C/C#CCCCCCCCC(=O)O` was tested, and the T/C (endpoint: median survival time, dose: 150.0 mg/kg/injection, schedule: Q01DX009 (ip), vehicle: Klucel (hydroxypropylcellulose) (HPC), higher = longer survival) was 96 % of control and 150 % of control.

With `N=C(N)Sc1cc(O)ccc1O` the T/C (endpoint: median survival time, dose: 75.0 mg/kg/injection, schedule: Q01DX009 (ip), vehicle: saline, higher = longer survival) was 100 % of control and 150 % of control and the T/C (endpoint: median survival time, dose: 150.0 mg/kg/injection, schedule: Q01DX009 (ip), vehicle: saline, higher = longer survival) was 103 % of control and 150 % of control.

For `CC(=O)OC1C=CC(=O)OC1C1OC1C` (stereo not drawn), the T/C (endpoint: mean tumor weight, dose: 13.0 mg/kg/injection, schedule: Q01DX011 (ip), vehicle: saline, higher = larger tumour) was 76 % of control and 114 % of control.

`CCn1cnc2c(=S)nc(N)[nH]c21` was tested, and the T/C [1] was 5 % of control and 52 % of control.

With `OC(CBr)C(O)C(O)C(O)CBr` (stereo not drawn) the T/C (endpoint: mean tumor weight, dose: 200.0 mg/kg/injection, schedule: Q01DX011 (ip), vehicle: saline, higher = larger tumour) was 38 % of control and 172 % of control.

In the case of `CCCCCCC(=O)NC1=C(N2CC2)C(=O)C(NC(=O)CCCCCC)=C(N2CC2)C1=O`, the T/C (endpoint: mean tumor weight, dose: 15.0 mg/kg/injection, schedule: Q01DX011 (ip), vehicle: other, higher = larger tumour) is reported as 26 % of control and 85 % of control.

With `CC(=O)[C@H]1CC[C@H]2[C@@H]3CC[C@@H]4CC(=O)CC[C@]4(C)[C@H]3[C@@H]3O[C@@H]3[C@]12C` the T/C (endpoint: mean tumor weight, dose: 125.0 mg/kg/injection, schedule: Q01DX011 (ip), vehicle: other, higher = larger tumour) was 115 % of control and 170 % of control.

For `CCOC(=O)C1CCC(NC(=O)N(CCCl)N=O)CC1` (stereo not drawn), the T/C (endpoint: median survival time, dose: 45.0 mg/kg/injection, schedule: Q01DX001 (ip), vehicle: gum acacia, higher = longer survival) was 78 % of control and 199 % of control.

For `CS(=O)(=O)OCCCCCCCCCOS(C)(=O)=O`, the T/C [2] was 31 % of control and 69 % of control.

In the case of `C1CCNC1`, the T/C (endpoint: mean tumor weight, dose: 12.5 mg/kg/injection, schedule: Q01DX011 (ip), vehicle: saline, higher = larger tumour) is reported as 58 % of control and 107 % of control.

In the case of `CC(C)(C)c1ccc(CN2CCN(C(c3ccccc3)c3ccc(Cl)cc3)CC2)cc1` (stereo not drawn), the T/C (endpoint: median survival time, dose: 1.0 mg/kg/injection, schedule: Q01DX009 (ip), vehicle: saline with Tween-80, higher = longer survival) is reported as 106 % of control and 169 % of control and the T/C (endpoint: median survival time, dose: 4.0 mg/kg/injection, schedule: Q01DX009 (ip), vehicle: saline with Tween-80, higher = longer survival) is reported as 112 % of control, 163 % of control, 164 % of control.

With `CC1CN1P(=S)(N1CC1C)N1CC1C` (stereo not drawn) the T/C (endpoint: mean tumor weight, dose: 35.0 mg/kg/injection, schedule: Q01DX011 (ip), vehicle: carboxymethylcellulose (CMC), higher = larger tumour) was 34 % of control and 61 % of control.

`CC(=O)Nc1cc2c(cc1Br)-c1ccccc1C2O` (stereo not drawn) was tested, and the T/C (endpoint: mean tumor weight, dose: 35.0 mg/kg/injection, schedule: Q01DX011 (ip), vehicle: saline, higher = larger tumour) was 21 % of control, 40 % of control, 62 % of control.

In the case of `CS(=O)(=O)OCC(O)C(O)C(O)C(O)COS(C)(=O)=O` (stereo not drawn), the T/C (endpoint: mean tumor weight, dose: 100.0 mg/kg/injection, schedule: Q01DX011 (ip), vehicle: saline, higher = larger tumour) is reported as 74 % of control and 110 % of control.

With `C[C@@H]1C[C@@H]([C@H](O)CC2CC(=O)NC(=O)C2)C(=O)[C@@H](C)C1` the T/C (endpoint: mean tumor weight, dose: 7.5 mg/kg/injection, schedule: Q01DX011 (ip), vehicle: carboxymethylcellulose (CMC), higher = larger tumour) was 75 % of control and 102 % of control.

In the case of `S=c1nc[nH]c2nc[nH]c12`, the T/C (endpoint: median tumor weight (est.), dose: 10.0 mg/kg/injection, schedule: Q01DX011 (ip), vehicle: alkali diluted with saline, higher = larger tumour) is reported as 82 % of control and 153 % of control, the T/C (endpoint: median tumor weight (est.), dose: 20.0 mg/kg/injection, schedule: Q01DX011 (ip), vehicle: alkali diluted with saline, higher = larger tumour) is reported as 73 % of control, 82 % of control, 113 % of control and the T/C (endpoint: median tumor weight (est.), dose: 40.0 mg/kg/injection, schedule: Q01DX011 (ip), vehicle: alkali diluted with saline, higher = larger tumour) is reported as 60 % of control, 79 % of control, 104 % of control.

In the case of `NCCCOc1ccc([N+](=O)[O-])cc1Cl`, the T/C (endpoint: median survival time, dose: 25.0 mg/kg/injection, schedule: Q01DX009 (ip), vehicle: saline, higher = longer survival) is reported as 107 % of control and 150 % of control.

In the case of `Nc1nc(SCc2ccccc2Cl)c2[nH]cnc2n1`, the T/C [1] is reported as 29 % of control and 86 % of control.

In the case of `CCCCCC(=O)O[C@]1(C(C)=O)CC[C@H]2[C@@H]3CCC4=CC(=O)CC[C@]4(C)[C@H]3CC[C@@]21C`, the T/C [3] is reported as 77 % of control and 117 % of control and the T/C (endpoint: mean tumor weight, dose: 500.0 mg/kg/injection, schedule: Q01DX011 (sc), vehicle: steriod suspending solution, higher = larger tumour) is reported as 60 % of control and 110 % of control.

With `Clc1[nH]nc2ccccc12` the T/C (endpoint: mean tumor weight, dose: 62.5 mg/kg/injection, schedule: Q01DX011 (ip), vehicle: saline, higher = larger tumour) was 46 % of control and 74 % of control.

`C[C@]12CC[C@H](O)CC1=CC[C@@H]1[C@@H]2CC[C@]2(C)c3nc4ccccc4cc3C[C@@H]12` was tested, and the T/C [3] was 43 % of control and 69 % of control.

`O=CN1CCOCC1` was tested, and the T/C (endpoint: mean tumor weight, dose: 125.0 mg/kg/injection, schedule: Q01DX011 (ip), vehicle: saline, higher = larger tumour) was 83 % of control and 112 % of control.

With `C=CCn1c(=O)n(CC=C)c(=O)n(CC=C)c1=O` the T/C (endpoint: mean tumor weight, dose: 30.0 mg/kg/injection, schedule: Q01DX011 (ip), vehicle: carboxymethylcellulose (CMC), higher = larger tumour) was 48 % of control and 83 % of control and the T/C (endpoint: mean tumor weight, dose: 60.0 mg/kg/injection, schedule: Q01DX011 (ip), vehicle: carboxymethylcellulose (CMC), higher = larger tumour) was 74 % of control and 121 % of control.

With `O=P1(N(CCCl)CCCl)NCCCO1` (stereo not drawn) the T/C (endpoint: mean tumor weight (est.), dose: 23.0 mg/kg/injection, schedule: Q01DX009 (ip), vehicle: saline, higher = larger tumour) was 32 % of control, 40 % of control, 152 % of control, the T/C (endpoint: mean tumor weight (est.), dose: 39.0 mg/kg/injection, schedule: Q01DX009 (ip), vehicle: saline, higher = larger tumour) was 19 % of control and 75 % of control and the T/C (endpoint: median survival time, dose: 29.6 mg/kg/injection, schedule: Q04DX003 (ip), vehicle: saline, higher = longer survival) was 96 % of control and 177 % of control.

For `O=NN(CCCl)C(=O)Nc1ccc2[nH]c3ccccc3c2c1`, the T/C (endpoint: median survival time, dose: 16.25 mg/kg/injection, schedule: Q01DX009 (ip), vehicle: Klucel (hydroxypropylcellulose) (HPC), higher = longer survival) was 109 % of control and 164 % of control.

With `N[C@@H](Cc1ccc(N(CCCl)CCCl)cc1)C(=O)O` the T/C (endpoint: median survival time, dose: 2.0 mg/kg/injection, schedule: Q01DX009 (ip), vehicle: saline, higher = longer survival) was 123 % of control and 168 % of control.

`CC1CCC(NC(=O)N(CCCl)N=O)CC1` (stereo not drawn) was tested, and the T/C (endpoint: median survival time, dose: 8.0 mg/kg/injection, schedule: Q01DX009 (ip), vehicle: Klucel (hydroxypropylcellulose) (HPC), higher = longer survival) was 95 % of control (2×) and 153 % of control.

With `CCOC(=O)NP(=O)(N1CC1)N1CC1` the T/C (endpoint: mean tumor weight, dose: 10.0 mg/kg/injection, schedule: Q01DX011 (ip), vehicle: saline, higher = larger tumour) was 20 % of control and 57 % of control.

With `NC(=S)N/N=C/c1nccc2ccccc12` the T/C (endpoint: median survival time, dose: 75.0 mg/kg/injection, schedule: Q01DX009 (ip), vehicle: saline with Tween-80, higher = longer survival) was 111 % of control and 152 % of control.

With `CCN(CC)C(=S)S` the T/C (endpoint: mean tumor weight, dose: 250.0 mg/kg/injection, schedule: Q01DX011 (ip), vehicle: saline, higher = larger tumour) was 89 % of control and 150 % of control and the T/C (endpoint: mean tumor weight, dose: 500.0 mg/kg/injection, schedule: Q01DX011 (ip), vehicle: saline, higher = larger tumour) was 68 % of control and 119 % of control.

`CC[C@]1(O)C[C@H]2CN(CCc3c([nH]c4ccccc34)[C@@](C(=O)OC)(c3cc4c(cc3OC)N(C=O)[C@H]3[C@@](O)(C(=O)OC)[C@H](OC(C)=O)[C@]5(CC)C=CCN6CC[C@]43[C@@H]65)C2)C1` was tested, and the T/C (endpoint: mean tumor weight, dose: 0.33 mg/kg/injection, schedule: Q01DX011 (ip), vehicle: saline, higher = larger tumour) was 63 % of control and 90 % of control.

With `N#Cc1ccc(S(N)(=O)=O)cc1` the T/C [4] was 47 % of control and 117 % of control.

`CCN(CC)C(=S)S.[Te]` was tested, and the T/C (endpoint: mean tumor weight, dose: 12.5 mg/kg/injection, schedule: Q01DX011 (ip), vehicle: carboxymethylcellulose (CMC), higher = larger tumour) was 39 % of control and 65 % of control, the T/C [4] was 32 % of control and 72 % of control and the T/C (endpoint: mean tumor weight, dose: 100.0 mg/kg/injection, schedule: Q01DX011 (ip), vehicle: carboxymethylcellulose (CMC), higher = larger tumour) was 10 % of control, 16 % of control, 53 % of control.

With `NNc1nncc2ccccc12` the T/C (endpoint: mean tumor weight, dose: 45.0 mg/kg/injection, schedule: Q01DX011 (ip), vehicle: carboxymethylcellulose (CMC), higher = larger tumour) was 49 % of control and 97 % of control.

In the case of `CCc1ccccc1N1CCN(C(=O)c2cc(OC)c(OC)c(OC)c2)CC1`, the T/C [2] is reported as 18 % of control and 58 % of control.
